From PubChem BioAssay AID256 (DTP/NCI, 2004) come the findings set out here.

This test has as its system CD2F1 mice, L1210 leukemia ip, survival T/C. Briefly: NCI In Vivo Anticancer Drug Screen. Data for tumor model L1210 Leukemia (intraperitoneal) in CD2F1 (CDF1) mice. The settings on record: endpoint: median survival time; dose: 0.19 mg/kg/injection; schedule: Q01DX009 (ip); vehicle: saline; higher = longer survival. As to the method:
The antitumor activity of compounds was measured in mice bearing transplantable tumors. Survival or tumor size were measured and the results are expressed as the measurement made in the treated group (T) divided by the measurement made in the vehicle treated control group (C). The tumor model used in this assay is L1210 Leukemia (intraperitoneal) in CD2F1 (CDF1) mice

The structures appear in SMILES notation. Inconclusive results and toxic doses are left out. Some entries of the source have several records that differ or are many. This is not the full list of results. An entry can have further records. Values that stand side by side do not match, cause unknown; they may come from other doses, times, organisms or constructs than stated.

On to `NCCCNCCCCNC(=O)C(O)NC(=O)CCCCCCN=C(N)N` (stereo unspecified), for which the T/C is 121 % of control and 155 % of control.
